Measured values as given in ChEMBL document CHEMBL4888484, “Replenishing the malaria drug discovery pipeline: Screening and hit evaluation of the MMV Hit Generation Library 1 (HGL1) against asexual blood stage Plasmodium falciparum ,using a nano luciferase reporter read-out” (2022).
Values joined by “and” are separate entries in the source; they are usually repeats but may differ in a detail not shown here. Identical values can stand only once. The campaign covered roughly 150,000 compounds. About 540 (0.36%) showed an effect of 50% or more. Some of the results follow.

System: Plasmodium falciparum
Assay: Primary screen in NF54 nanoGlo assay, in single point, at 2uM, 72h; a lower Z score goes with more inhibition
Assay type: functional, Erythrocyte
Details: timepoint 72 hour

Row | SMILES | % Inhibition | Z score | % Inhibition (2 µM)
1 | CCN(CC)C(=O)CN(C)[C@@H](C)c1ccncn1 | -2% | 0.28 | 
2 | O=C(Nc1ccccc1N1CCCC1=O)c1ccc2[nH]c3c(c2c1)CCCC3 | -1% | 0.19 | 
3 | CC(C)Oc1cccc(C(=O)N2CC[C@@](C(=O)O)(C(F)(F)F)C2)n1 | -6% | 0.71 | 
4 | Cc1nccn1CC(=O)Nc1cnn(CC(C)C)c1C(C)C | -7% | 0.88 | 
5 | CNS(=O)(=O)c1ccc(N(C)C[C@H](C)c2nccs2)cc1 | -10% | 1.43 | 
6 | O=C(Nc1ccc(N2CCOCC2)nc1)Nc1ccccc1F | -8% | 1.15 | 
7 | c1nc2cc(-c3noc(CCCN4CCCCC4)n3)ccc2[nH]1 | -1% | 0.19 | 
8 | CC(C)(C)CCC1(O)CC(C(=O)NC2CCOC3(CCOC3)C2)C1 (configuration not stated) | -11% | 1.33 | 
9 | COC(=O)Cc1ccccc1C(=O)N1CC2C(C1)C2(C)C (configuration not stated) | -4% | 0.6 | 
10 | O=C1CCCN1c1ccc(NCc2cccc(F)c2O)nc1 | 0% | 0.05 | 
11 | O=C1NCCC[C@H]1c1nc(-c2ccsc2)no1 | -2% | 0.36 | 
12 | COc1ccc(OCC(=O)Nc2nc(-c3cccs3)ns2)cc1 | -16% | 1.39 | 
13 | Cc1noc([C@@H]2CC3(CCN(C(=O)CCc4nc5ccccc5s4)CC3)CN2C)n1 | -11% | 1.37 | 
14 | COCC(=O)N[C@@H]1CN(C(=O)Nc2ccccc2)CC[C@@H]1c1nc(C)no1 | -7% | 0.86 | 
15 | Cc1nccc(C(=O)Nc2ccc(CCN3CCC(O)CC3)cc2)n1 | -4% | 0.53 | 
16 | Fc1ccc(-c2nc(COc3ccc(Oc4ccncc4)cc3)co2)cc1 | -1% | 0.09 | 
17 | C[C@H](Nc1ccc(C(F)(F)F)cn1)C1CCOCC1 | -2% | 0.18 | 
18 | Cc1ccsc1-c1cccc(NC(=O)[C@@H]2CCCN2C(N)=O)c1 | -6% | 0.88 | 
19 | CC[C@H](NC(=O)Cc1csc(C)n1)c1cn2cccnc2n1 | -3% | 0.63 | 
20 | Cc1nc(C)c(CNc2ncccc2F)s1 | -7% | 1.08 | 
21 | Cn1cc(Cl)c(C(=O)Nc2cccc(S(=O)(=O)N3CCOCC3)c2)n1 | 38% | -5.55 | 

Row | SMILES | % Inhibition | Z score | % Inhibition (2 µM)
22 | Cc1cccc(OCCN2C(=O)NC3(CCCC3)C2=O)c1 | -4% | 0.68 | 
23 | Cc1cc(C)nc(N2CCN(C(=O)C[C@H]3C(=O)N(C)C(=O)N3C)CC2)n1 | -5% | 0.87 | 
24 | CC[C@](C)(C#N)C(=O)NCC1CCCCCC1 | -16% | 1.74 | 
25 | O=C(NCCc1cccc(O)c1)c1cccc(NS(=O)(=O)c2ccc3c(c2)OCCCO3)c1 | -17% | 2.64 | 
26 | CN1CCO[C@@H](CNCc2cc(-c3cccs3)on2)C1 | 1% | -0.11 | 
27 | CC(NCCN(C)C(=O)OC(C)(C)C)[C@H]1COC(C)(C)O1 (some centres not stated) | -2% | 0.39 | 
28 | Cc1cccc(NCCN2CCN(C(=O)C3CCCC3)CC2)n1 | -4% | 0.6 | 
29 | O=C(NCc1ncc[nH]1)[C@H]1CCCN(C2CCN(c3nc4ccccc4o3)CC2)C1 | 0% | -0.02 | 
30 | CN(CCCN1CCCC1)CC(=O)NCC1CCCCC1 | -6% | 1.1 | 
31 | CCN(CC)c1ccc(CNC(=O)c2c[nH]nn2)cc1F | -4% | 0.59 | 
32 | COc1ccc(-c2cc(C(=O)NC[C@@H]3CCCN4CCCC[C@H]34)n[nH]2)cc1OC | -1% | 0.15 | 
33 | CN(CCc1ccc2c(c1)CCO2)c1ccn(C)n1 | 26% | -3.33 | 
34 | CCCn1cc(NC(=O)c2cc(Br)cn2C)cn1 | 1% | -0.15 | 
35 | CNC(=O)C[C@H]1CCN(c2nnc(C(C)C)s2)C1 | -16% | 2.33 | 
36 | CC(NC(=O)NCc1ccco1)C1CCCN(C2CCC2)C1 (configuration not stated) | 2% | -0.14 | 
37 | CC1CCCC(OCc2nnc(-c3cnccn3)o2)C1 (configuration not stated) | 7% | -1.1 | 
38 | CC(C)(C)OC(=O)Nc1cnn2c1N(C(=O)[C@H]1CC13CC3)CCC2 | -12% | 2.32 | 
39 | C[C@@H](CNS(=O)(=O)c1cc(-c2nnc(C(=O)N3CCCC3)o2)cs1)c1ccccc1 | -7% | 0.99 | 
40 | Cc1cc(-c2cc(C(=O)Nc3ccncc3)no2)ccc1F | -14% | 2.57 | 
41 | CN(C)c1ccc(C(=O)Nc2ccc3[nH]c(=O)[nH]c3c2)cc1 | -5% | 0.65 | 
42 | CC(C)CCN1C(=O)CC[C@@H]2CN(C3CC=CC3)CC[C@@H]21 | -16% | 1.93 | 

Row | SMILES | % Inhibition | Z score | % Inhibition (2 µM)
43 | CCN(CC)c1onc(-c2ccccc2)c1CN(C(=O)c1ccc(C)cc1)C1CC1 | -4% | 0.45 | 
44 | CCOc1ccccc1CN(CCc1ccc2c(c1)OCO2)Cc1ccc(OC)c(OC)c1 | -1% | 0.11 | 
45 | CC(Oc1cccc(CO)c1)C(=O)N1CCCC1c1cccc(F)c1 (configuration not stated) | 4% | -0.6 | 
46 | O=C(NCCN1CCc2[nH]nc(-c3ccc(F)c(F)c3)c2C1)c1ccccc1 | -7% | 1.3 | 
47 | Cc1cc(=O)cc(O)n1Cc1nc2ccccc2[nH]1 | -12% | 1.59 | 
48 | COc1ccc(OC)c2sc(N(Cc3cccnc3)C(C)=O)nc12 | -15% | 2.89 | 
49 | C[C@](O)(CNC(=O)Nc1cccc(OC(F)F)c1)c1ccsc1 | -6% | 0.84 | 
50 | Cc1cc(=O)[nH]c2[nH]n(-c3ccccc3)c(=O)c12 | 6% | -0.76 | 
51 | CC[C@H](C)N(Cc1cc(NC(=O)NC(C)(C)C)ccc1N(C)C)C(=O)C(C)C | 0% | -0.01 | 
52 | NC(=O)[C@@H]1CCCN1C(=O)c1cn(C2CCCCCC2)nn1 | -5% | 0.63 | 
53 | CC(C)c1ncc(NC(=O)Cc2ccc(C(=O)O)cc2)cn1 | 14% | -1.82 | 
54 | O=C(NC[C@@H](c1ccco1)n1cccn1)c1cccc(Cl)c1 | 2% | -0.29 | 
55 | COc1ccc(C(=O)NC[C@@]2(COc3ccccc3)C[C@@H](O)[C@@H](O)C2)cc1 | -11% | 1.37 | 
56 | COc1cccc(-c2nc3ccccc3c(=O)[nH]2)c1OCc1ccc(Cl)cc1Cl | -49% | 5.76 | 
57 | CC(OC(=O)C(C)Oc1ccc(Cl)cc1Cl)C(=O)NC(=O)NC1CCCC1 (configuration not stated) | -1% | 0.08 | 
58 | Cc1nc(C(=O)N2CCN(c3ccc(F)cc3)CC2)co1 | -6% | 0.84 | 
59 | Cc1cc(C)c(C#N)c(N2CCC3(CCC(=O)N(CCc4ccccn4)C3)CC2)n1 | -8% | 1.26 | 
60 | CC(C)CC(=O)N(CC(=O)Nc1nc(-c2ccccc2)cn1-c1ccc(F)cc1)Cc1ccccc1 | -4% | 0.47 | 
61 | COCc1ncc(CN(C)Cc2cc(C3CC3)[nH]n2)cn1 | -20% | 2.15 | 
62 | c1coc(CN2CCC(NCCc3nc(C4CC4)no3)CC2)c1 | -11% | 1.17 | 
63 | O=C1c2ccccc2C(=O)N1Cc1nc(Cc2cccs2)no1 | -15% | 1.7 | 

Row | SMILES | % Inhibition | Z score | % Inhibition (2 µM)
64 | O=S(=O)(NCC1CCC2(CCOCC2)C1O)C1CC1 (configuration not stated) | 5% | -0.87 | 
65 | Fc1ccc(-c2cc(-c3ccc(Cl)cc3)nc3c2COc2ccccc2-3)cc1 | -11% | 1.21 | 
66 | C[C@@H](C(N)=O)N(C)CCc1ccc(F)cc1 | -11% | 1.63 | 
67 | CC[C@H](C)N(CC#Cc1ccccc1)Cc1ccc(CO)o1 | 10% | -1.34 | 
68 | COc1ccc(Cl)cc1NC(=O)[C@H]1C[C@@H]2CCCN2[C@]12C(=O)Nc1c(Cl)cc(C)cc12 | -9% | 1.3 | 
69 | O=C(Cn1c(=O)n(CC(=O)NC2CCCC2)c(=O)c2ccccc21)Nc1ccc(Cl)c(Cl)c1 | -9% | 1.42 | 
70 | Cc1ccc(Cn2c(=O)c3nn(C)cc3n3c(=O)n(Cc4cc(C)ccc4C)nc23)cc1 | 2% | -0.27 | 
71 | CCc1nc(OCC(=O)NCc2ccc(OC)cc2OC)c2c(-c3ccc(F)cc3)noc2n1 | 6% | -0.88 | 
72 | Cc1ncc(S(N)(=O)=O)cc1C(=O)NCC1(C(C)C)CC1 | 10% | -2.02 | 
73 | O=C(C[C@@H]1C=CCC1)NCCc1cn2c(n1)CCCC2 | 2% | -0.28 | 
74 | Cc1cc(C)nc(-c2cccc(C(=O)NC[C@@H](CO)Cc3ccsc3)c2)c1 | -9% | 1.16 | 
75 | C[C@@]1(C(=O)NC2CCCCCCC2)Cn2nc(-c3ccco3)cc2C(=O)N1Cc1ccc(F)cc1 | -9% | 1.81 | 
76 | Cc1cc(=O)cc(C(=O)NC2Cc3ccccc3C2)[nH]1 | -5% | 0.74 | 
77 | O=C(NC1CCCCC1)N(CC1CC1)c1ccccc1 | -3% | 0.32 | 
78 | CCc1cc(N2CCOc3c(O)cc(-c4ccc(Cl)cn4)cc3C2)ncn1 | -18% | 1.63 | 
79 | Cc1noc(C)c1CC(=O)Nc1n[nH]c(CC(C)C)n1 |  |  | 1% and -1% and -7%
80 | COc1ccc2cc3n(c2c1)CC(C)(C(=O)NCC1CCCO1)N(CCC(C)C)C3=O (configuration not stated) | -11% | 1.06 | 
81 | Cc1cc(C(=O)N2CCN(S(=O)(=O)c3cccnc3)CC2)sc1C | -13% | 2.04 | 
82 | CCc1nnc(C)cc1C(=O)N1CCN(c2cccc(F)c2)C[C@@H]1C | -18% | 2.2 | 
83 | CCn1nccc1NC(=O)c1cc(-c2cnn(C)c2)nc2onc(C)c12 | 31% | -3.48 | 
84 | Cc1cccc(OCc2nc(CN(CC(C)C)C(=O)C3CCCC3)cs2)c1C | 1% | -0.13 | 
